# In paper PMC4336329 (PLoS ONE, 2015):
# In all, about 310,000 compounds went through this assay and about 2,200 (0.71%) showed an effect of 50% or more. Effects have a minus sign here. Some of the results follow.
# Target: human ether-à-go-go-related gene (hERG) potassium channel (human, UniProt Q12809)
# Assay: primary screen, population patch clamp on CHO cells stably expressing hERG
# Sequence of human ether-à-go-go-related gene (hERG) potassium channel (Q12809 whole entry, looked up): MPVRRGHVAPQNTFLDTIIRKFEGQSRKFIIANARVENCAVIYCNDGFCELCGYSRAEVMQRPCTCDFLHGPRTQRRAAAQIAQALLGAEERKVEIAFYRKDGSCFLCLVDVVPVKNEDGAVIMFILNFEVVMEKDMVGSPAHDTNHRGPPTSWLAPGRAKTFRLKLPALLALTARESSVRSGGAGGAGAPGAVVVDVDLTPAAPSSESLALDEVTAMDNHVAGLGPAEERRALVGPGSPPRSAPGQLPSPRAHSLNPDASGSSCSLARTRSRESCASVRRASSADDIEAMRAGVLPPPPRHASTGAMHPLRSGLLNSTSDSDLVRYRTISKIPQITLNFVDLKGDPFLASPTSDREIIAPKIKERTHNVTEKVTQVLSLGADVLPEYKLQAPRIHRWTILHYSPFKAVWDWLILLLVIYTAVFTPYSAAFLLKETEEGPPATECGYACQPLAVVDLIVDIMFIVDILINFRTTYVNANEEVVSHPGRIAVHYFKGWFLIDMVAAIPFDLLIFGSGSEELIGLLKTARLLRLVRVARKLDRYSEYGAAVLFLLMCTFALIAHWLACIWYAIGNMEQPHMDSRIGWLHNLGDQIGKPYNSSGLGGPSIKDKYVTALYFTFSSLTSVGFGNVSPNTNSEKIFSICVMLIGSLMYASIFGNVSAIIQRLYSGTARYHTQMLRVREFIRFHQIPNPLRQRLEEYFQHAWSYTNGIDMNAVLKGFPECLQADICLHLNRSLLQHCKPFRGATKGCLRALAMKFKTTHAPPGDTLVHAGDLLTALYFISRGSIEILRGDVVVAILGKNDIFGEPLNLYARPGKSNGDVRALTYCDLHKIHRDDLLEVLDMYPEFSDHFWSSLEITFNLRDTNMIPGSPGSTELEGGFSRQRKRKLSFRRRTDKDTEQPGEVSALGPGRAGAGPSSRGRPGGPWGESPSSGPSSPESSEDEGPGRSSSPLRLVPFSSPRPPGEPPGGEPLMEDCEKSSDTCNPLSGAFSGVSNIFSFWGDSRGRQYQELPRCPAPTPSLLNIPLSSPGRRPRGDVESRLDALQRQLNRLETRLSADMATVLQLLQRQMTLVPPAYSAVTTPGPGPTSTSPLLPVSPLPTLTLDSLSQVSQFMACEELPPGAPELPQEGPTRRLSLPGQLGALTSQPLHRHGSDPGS
row,SMILES,"hERG current change (%, negative = inhibition) at 1uM"
1,COc1cc(C(=O)Oc2ccccc2)ccc1OCc1c(C)noc1C,16.2%
2,CC(C)(C)OC(=O)N1CCC(CNC(=O)c2cccs2)CC1,11.1%
3,Cl.OC(CNCC#Cc1ccccc1)c1ccccc1 (stereo not drawn),13.3%
4,Cc1cc(=O)[nH]c(-n2[nH]c(C)cc2=O)n1,4.95%
5,CCN1CCc2nc(NC(=O)c3ccc(S(=O)(=O)N(C)C)cc3)sc2C1,5%
6,Cc1ccc(-c2nnc(-c3ccccc3)c(-c3ccccc3)n2)cc1,7.01%
7,Cc1cccc(NS(=O)(=O)c2ccc3c(c2)OCCO3)c1,8.22%
8,CC(=O)Nc1ccc(S(=O)(=O)N(C)CC(=O)Nc2cccc(S(=O)(=O)N3CCCC3)c2)cc1,7.31%
9,O=C(NCCCN1CCOCC1)c1c(F)cccc1F,1.05%
10,Cc1ccc(C)c(NS(=O)(=O)c2c(C)ccc3nsnc23)c1,0.605%
11,CCOc1ccc(N2C(=O)CC(N3CCN(C4CCc5ccccc5C4)CC3)C2=O)cc1 (stereo not drawn),-65.5%
12,O=C(O)/C=C/c1ccc([N+](=O)[O-])o1,11.1%
13,COC(=O)Cn1cc(C(=O)OC)cc(Br)c1=O,1.56%
14,COc1cccc(-n2c(=O)[nH]cc(C(=O)Nc3ccc(NC(C)=O)cc3)c2=O)c1,8.55%
15,Cc1csc2ncc(C(=O)N3CCc4ccccc43)c(=O)n12,14.6%
16,CCOc1ccc(C(=O)CC(C(=O)O)N2CCN(Cc3ccccc3)CC2)cc1 (stereo not drawn),14.6%
17,Cn1c(SCC(=O)N2CCN(S(=O)(=O)c3ccc(Cl)cc3)CC2)nc2ccccc21,11.2%
18,C=CCSc1nnc(NC(=O)Cn2cnc3c2c(=O)n(C)c(=O)n3C)s1,12.8%
19,COc1ccc(NC(=O)Cc2nnc(SCC(=O)c3ccc(F)cc3)n2C)cc1,16.4%
20,Cc1csc(SCC(=O)Nc2cccc(S(=O)(=O)N3CCCC3)c2)n1,-2.37%
21,Clc1ccc(/C=N/NC2=Nc3cccc4cccc2c34)cc1,4.72%
22,N#Cc1ccc(COC(=O)CCc2c[nH]c3ccccc23)cc1,3.53%
23,CC(C)C(=O)Nc1cccc(NC(=S)NC(=O)c2ccc3c(c2)OCO3)c1,10.6%

row,SMILES,"hERG current change (%, negative = inhibition) at 1uM"
1,O=C(NC(=S)NC1C2CC3CC(C2)CC1C3)c1ccccc1 (stereo not drawn),10.1%
2,CCOC(=O)N1CCN(C(=O)COC(=O)Cc2ccc(Cl)cc2)CC1,-3.36%
3,COc1cc(/C=C(\C#N)c2nc3ccccc3o2)ccc1O,4.77%
4,COc1ccc(C(=O)/C=C2/C(=O)Nc3ccccc32)c(OC)c1,14.2%
5,N#Cc1cc(-c2ccccc2)nc(N2CCNCC2)n1,8.63%
6,O=C1/C(=C/c2ccc(N3CCOCC3)o2)SC(=Nc2ccccc2)N1CCc1c[nH]c2ccccc12,6.23%
7,COC(=O)c1ccsc1NC(=O)C1=COCCO1,16.2%
8,O=C1c2ccccc2CN2C(=O)c3ccccc3CN12,26.3%
9,CCOC1(OCC)C(c2ccc(N)cc2)C(C#N)(C#N)C1(OCC)OCC (stereo not drawn),13.5%
10,Cc1ccc(C(=O)C[n+]2cc(Br)cc(Br)c2)cc1[N+](=O)[O-].[Br-],4.51%
11,CN(C)C(CNC(=S)Nc1ccccc1Cl)c1cccnc1 (stereo not drawn),11.7%
12,Cc1csc(NC(=O)Cn2cnnn2)n1,10.6%
13,Cc1c(-n2cc(C(=O)c3cc(F)ccc3O)cc(C#N)c2=O)c(=O)n(-c2ccccc2)n1C,2.47%
14,CC(C)CSc1nc2ccccc2n1CC(N)=O,8.91%
15,CC(=O)Nc1nnc(-c2ccco2)o1,6.48%
16,O=C(Oc1coc(CSc2ncccn2)cc1=O)c1ccc(Br)o1,11.6%
17,c1coc(CNC2CCCCCCC2)c1,13.1%
18,Cc1cc(NC(=O)c2cccc(N3C(=O)CCC3=O)c2)no1,4.32%
19,COc1cccc(C(=O)N2CCC(n3nccc3NC(=O)C3CCOC3)CC2)c1 (stereo not drawn),-6.17%
20,Cc1ccc2c(c1)nc(NCCCO)n2C,11.9%
21,COc1ccc(NC(=O)CSc2ccc(-c3ccco3)nn2)cc1OC,1.7%
22,C=CCOc1ccccc1CN1CCC(CO)(CCOc2ccccc2)CC1,-61.4%
23,CCC(=O)Nc1cc(C(=O)OCC(=O)c2ccccc2)ccc1C,10.2%

row,SMILES,"hERG current change (%, negative = inhibition) at 1uM"
1,O=C(COc1ccc2c(c1)OCO2)Nc1ccccc1C(F)(F)F,9.93%
2,COc1cc(NC(=O)c2cc(-c3ccc4c(c3)OCO4)on2)cc(OC)c1OC,7.02%
3,CCOC(=O)Cc1csc(NC(=O)c2cc(-c3ccncc3)nc3ccccc23)n1,9.13%
4,CCOCCCNC(=O)C(c1ccc(C)cc1)N1CCOCC1 (stereo not drawn),13%
5,Cc1cc(Br)ccc1NC(=O)C(C)c1ccc([N+](=O)[O-])cc1 (stereo not drawn),-45.2%
6,CCC(OC(=O)c1cccs1)C(=O)NCc1ccco1 (stereo not drawn),8.2%
7,O=c1c2c3c(sc2nc(N2CCNCC2)n1-c1cccc(Cl)c1)CCCCC3,10.3%
8,Nc1nncn1C(=O)CCc1ccccc1,-2.61%
9,Br.Nc1ccc(OCC(O)C[n+]2ccc(CCS(=O)(=O)[O-])cc2)cc1 (stereo not drawn),6.98%
10,Cc1ccccc1NC(=S)N(CCc1c(C)[nH]c2ccc(F)cc12)Cc1cccnc1,13%
11,CCN(CC(=O)Nc1ccc2c(c1)OCCO2)C(=O)C1CCCCC1,1.8%
12,Cn1nnnc1SCC(=O)NCCc1ccc(Cl)cc1,4.86%
13,COc1ccc(Nc2ncnc3sc(C)cc23)c(OC)c1.Cl,10.1%
14,CCCc1cc2c(=O)c(-c3ccccn3)c(C)oc2cc1O,8.84%
15,C[C@]12C[C@H](O)[C@H]3[C@@H](CCC4=CC(=O)CC[C@@]43C)[C@@H]1CC[C@@H]2C(=O)CO,8.41%
16,Cc1ccc2cc(C#N)c(N3CCCN(C(=O)C4CCCO4)CC3)nc2c1 (stereo not drawn),-0.416%
17,COc1cc(-c2nnc(NC(=O)CCS(=O)(=O)c3ccccc3)o2)cc(OC)c1OC,8.18%
18,O=S(=O)(Nc1ccc(S(=O)(=O)N2CCOCC2)cc1)c1ccc(Br)cc1,-0.287%
19,Cc1ccc(S(=O)(=O)N(C)CCCC(=O)NCc2ccc3c(c2)OCO3)cc1,1.55%
20,CC1(C(=O)NNC(=O)c2ccc([N+](=O)[O-])cc2)CC1(Br)Br (stereo not drawn),15.1%
21,CCOc1cc(CNc2ccccc2)cc(Br)c1OCc1ccc(F)cc1,16.2%
22,O=C(Nc1cccc(O)c1)c1cc2nc(-c3ccccc3)cc(-c3ccccc3)n2n1,9.81%
23,O=C1C2=C(NC(=S)NC2c2ccc(Cl)cc2)NC(c2ccc(Cl)cc2)N1c1ccc(Cl)cc1 (stereo not drawn),7.66%

row,SMILES,"hERG current change (%, negative = inhibition) at 1uM"
1,COc1ccc(-c2noc(-c3ccccc3C(=O)NCC3CCCO3)n2)cc1 (stereo not drawn),-10.5%
2,O=C(CNCC1CCCO1)NCc1ccco1.O=C(O)C(=O)O (stereo not drawn),16.6%
3,Cn1c(-c2sc3cc(C(F)(F)F)cnc3c2-c2cccnc2)n[nH]c1=S,17.2%
4,Cc1nc2ccc(S(=O)(=O)Nc3ccc(-c4nc5cccnc5s4)cc3)cc2s1,10.3%
5,CCOc1ccc(CC(=O)N/N=C(\C)c2cccnc2)cc1,12.1%
6,CCC1ON(C(C)C)C2c3nc4ccccc4n3CC12 (stereo not drawn),16.1%
7,Nc1cc(=O)[nH]c(SCC(=O)Nc2cc(Cl)cc(Cl)c2)n1,12.8%
8,Cc1cccc(NC(=O)c2ccc3c(c2)OCCO3)n1,8.09%
9,CCC(=NC1CC(C)(C)NC(C)(C)C1)C1=C(O)CC(C)(C)CC1=O,14.8%
10,COc1ccc(-c2cc3cc(C(=O)[O-])ccn3c2C(=O)c2ccccc2)cc1.O,18.3%
11,CCOc1ccc(S(=O)(=O)N(CC(=O)N2CCc3ccccc32)Cc2ccco2)cc1,6.76%
12,CSc1ccccc1C(=O)Nc1ccc(S(=O)(=O)NC2=NCCCCC2)cc1,9.56%
13,CCn1c(SCC(=O)N2CCCC2)nnc1-c1ccco1,10.4%
14,O=C(O)CCS(=O)(=O)c1ccccc1Cl,16.4%
15,O=C(CCNc1n[nH]c(=O)[nH]c1=O)N/N=C/c1ccc(Cl)cc1,15%
16,CC(C)c1cc(C(=O)Nc2cccc(Cl)c2)no1,6.75%
17,CNS(=O)(=O)c1ccc(N=Cc2c(O)n(-c3ccc(C)cc3)c(=O)[nH]c2=O)cc1,10.8%
18,Cc1cc(S(=O)(=O)NCc2ccccc2)ccc1OCC(=O)N1CCN(C)CC1,15.5%
19,N=c1c(-c2nc3ccccc3[nH]2)cc(C(=O)c2ccco2)nn1-c1ccccc1,-29.5%
20,CS(=O)(=O)N1CCCC(C(=O)N2CCN(c3cccc(Cl)c3)CC2)C1 (stereo not drawn),7.48%
21,COc1ccccc1NC(=O)c1ccc([N+](=O)[O-])cc1[N+](=O)[O-],1.46%
